Test results reported in patent US11007503B2, “Systems and methods for a cooled nitric oxide generator” (The General Hospital Corporation, priority 2017, dated 2021).

Test system: rabbits with acute pulmonary hypertension

Question: What does the source list for [N]=O [NO, nitric oxide]?
Answer: RVSP with NO generated on every two- or three-breaths (80 ppm NO triggered every other or every third breath, RVSP 30 mmHg before NO, P<0.05 versus before NO breathing, FIG. 15): 26 mmHg; RVSP reduction compared with 40 ppm NO diluted from NO/N2 tank (electrically generated NO versus tank NO (500 ppm NO in N2) in 50% O2, FIG. 14): as effective in reducing RVSP as breathing NO diluted from a convention NO/N2 cylinder
